Data: the supplement of paper PMC12217912
The list shows a part of the results. Sequences were assembled here from the parent chain. Inactive controls read about 0.05.

B1: TEV protease; numbered along this chain (parent)
chain: MGESLFKGPRDYNPISSSICHLTNESDGHTTSLYGIGFGPFIITNKHLFRRNNGTLVVQSLHGVFKVKDTTTLQQHLVDGRDMIIIRMPKDFPPFPQKLKFREPQREERICLVTTNFQTKSMSSMVSDTSCTFPSGDGIFWKHWIQTKDGQCGSPLVSTRDGFIVGIHSASNFTNTNNYFTSVPKNFMELLTNQEAQQWVSGWRLNADSVLWGGHKVFMVKPEEPFQPVKEATQL

Variants of: B1
Test: raw area under fraction-flipped curve 0-4 h after induction (AUC4h, not background-subtracted), DNA-recorder readout of cleavage of the substrate (dimensionless); higher = more cleavage of the substrate by the protease variant
Conditions: temperature: 34 °C; time window: 0-4 h after rhamnose induction
Method: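 In vivo DNA recorder in E. coli TOP10(DE3) ΔrhaA at 34 °C. Each TEVp single-site mutant (parent TEVp 0) is paired with a single-site variant of the 7-mer TEVs (canonical ENLYFQ|S). The substrate sits between flexible linkers in a Bxb1-sfGFP-TEVs-SsrA fusion, so cleavage stabilises Bxb1 and speeds flipping of a recombination array, read by NGS. The value is the raw area under the fraction-flipped curve over 0-4 h after rhamnose induction (AUC4h), with ≥20 reads per time point. It is not background-subtracted; inactive controls average about 0.047.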
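Further: Bxb1 expression induced with 0.2% (w/v) L-rhamnose at OD600 near 0.5, cultures sampled hourly, flipped fraction per protease–substrate barcode pair counted by paired-end Illumina sequencing.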

| Variant | area with substrate EALYFQS | area with substrate EELYFQS | area with substrate EGLYFQS | area with substrate EHLYFQS | area with substrate EILYFQS | area with substrate EMLYFQS | area with substrate EPLYFQS | area with substrate EQLYFQS | area with substrate ERLYFQS | area with substrate ESLYFQS | area with substrate ETLYFQS | area with substrate EVLYFQS | area with substrate EWLYFQS | area with substrate EYLYFQS | area with substrate ECLYFQS | area with substrate EDLYFQS | area with substrate ELLYFQS | area with substrate EFLYFQS | area with substrate EKLYFQS |
| --- | --- | --- | --- | --- | --- | --- | --- | --- | --- | --- | --- | --- | --- | --- | --- | --- | --- | --- | --- |
| F218Q | 0.098 | 0.112 | 0.0534 | 0.0843 | 0.0691 | 0.105 | 0.0908 | 0.088 | 0.0789 | 0.0847 | 0.12 | 0.0791 | 0.0803 | 0.0799 | – | – | – | – | – |
| F218C | 0.124 | – | – | 0.123 | – | 0.0946 | 0.135 | – | 0.0975 | 0.11 | – | – | 0.132 | – | 0.113 | 0.139 | – | – | – |
| K221P | 0.105 | – | – | 0.113 | 0.114 | 0.0915 | 0.095 | 0.0064 | 0.0985 | 0.116 | – | 0.113 | – | – | – | 0.13 | 0.105 | – | – |
| V210I | 0.101 | – | – | – | – | 0.135 | – | – | 0.106 | 0.113 | – | 0.102 | 0.0825 | – | 0.0589 | – | – | – | – |
| V210W | 0.0969 | – | – | 0.141 | 0.07 | – | 0.0891 | – | – | – | – | 0.0653 | 0.0873 | 0.102 | 0.0899 | 0.109 | 0.0756 | 0.114 | 0.0866 |
| K216Y | 0.12 | 0.0925 | 0.0883 | – | – | 0.0978 | – | 0.0919 | – | 0.0897 | 0.0976 | 0.0807 | – | – | 0.101 | 0.0975 | 0.106 | 0.107 | 0.0863 |
| R204Y | 0.116 | 0.127 | 0.118 | – | 0.106 | – | 0.154 | 0.136 | 0.0987 | 0.114 | – | 0.11 | 0.124 | – | 0.132 | 0.147 | 0.0911 | – | 0.119 |
| Q197L | 0.142 | – | 0.093 | – | 0.0969 | 0.119 | – | 0.132 | – | 0.0952 | – | – | 0.0968 | – | 0.102 | 0.0907 | – | 0.081 | 0.0894 |
| Q197H | 0.146 | 0.101 | – | – | 0.0682 | – | – | 0.102 | 0.0894 | – | – | – | – | – | – | 0.116 | 0.0948 | – | – |
| L211G | 0.109 | 0.118 | – | 0.101 | – | – | – | – | 0.0846 | – | 0.116 | – | 0.0833 | 0.0952 | 0.0954 | – | 0.0812 | 0.101 | – |
| L211E | 0.119 | – | – | 0.152 | – | – | 0.127 | 0.15 | 0.109 | 0.116 | – | 0.117 | 0.126 | 0.128 | 0.0768 | 0.159 | – | 0.114 | 0.151 |
| S201F | 0.0959 | 0.0922 | – | – | 0.0768 | – | – | – | – | – | – | – | – | – | 0.0899 | – | – | – | 0.0786 |
| E195I | 0.0997 | – | 0.0646 | – | 0.0665 | 0.084 | – | – | 0.0807 | 0.0919 | – | 0.0855 | 0.0807 | – | 0.12 | – | – | – | – |
| E223P | 0.0647 | – | 0.118 | 0.0823 | 0.0956 | 0.0901 | – | 0.109 | 0.0864 | 0.104 | – | – | 0.0876 | – | – | – | – | – | 0.12 |
| A207F | 0.0638 | – | – | 0.101 | 0.0724 | 0.103 | 0.0918 | – | 0.0934 | 0.101 | 0.0949 | 0.0822 | – | – | 0.0805 | 0.115 | 0.0552 | – | – |
| L205C | 0.112 | – | – | 0.0995 | – | – | – | 0.0897 | 0.0807 | – | – | 0.0786 | – | – | 0.0862 | – | – | 0.101 | 0.0833 |
